Results from the supplement of paper PMC11417369.
The other results are listed elsewhere or left out.

System: PF3D7_0420300 AP2 domain 1 (GST-tagged)
Experiment: gcPBM binding intensity (ln(normalized median fluorescence intensity)); higher = stronger DNA binding
Summary of the method: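 Each value is the highest Masliner-normalised natural-log median intensity across replicate spots of either orientation of a probe. The probes were primer-extended double-stranded 36-bp intergenic genomic sequences on an Agilent 4 × 180k array, alongside negative controls, exposed for 1 h to GST-tagged P. falciparum DNA-binding domains expressed in E. coli. Bound protein was picked up with Alexa488 anti-GST antibody and scanned at 488 nm.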

| Sequence | gcPBM binding intensity (ln) |
| --- | --- |
| AATAAATGGAATGTCACACATATATATATATATATA [CACACA_site4869] | 9.17 |
| AGTGTATGTATATAAACACACATACATATTTATAAC [CACACA_site6777] | 9.48 |
| AAAAAAAAGAAAGAAAGTACAAATTATAAAATGAAC [XGTACX_site860] | 9.71 |
| TAAATTAAAAAACACACACACAAAAAAAAAAAAAAA [CACACA_site2263] | 10 |
| CAAAAGGATGTGGGATGTACATATGAAAAAAAAAAA [XGTACX_site8059] | 9.24 |
| TTTTATTTATAATACTCACACATTTATATTACATAT [CACACA_site6000] | 9.46 |
| TTGTATGTAAAAAAGTGTACATGAGTGATTATATAA [XGTACX_site8166] | 9.36 |
| GGTCTTTTTTTCAAAAGTACATAAATAAAAAAGGTT [XGTACX_site2894] | 9.09 |
| ATTACTAAAAAATATAAACACACATATATTTTACAT [CACACA_site8633] | 9.6 |
| TAAATTTAAAAATCTGCACACATTTAAAAAAAAAAA [CACACA_site2515] | 9.15 |
| GAAAATTTAAAAAGAGTGCATTATATGTTTGAATAT [GTGCAC_site9564] | 9.19 |
| CTTTTTTTCTTTCCAAGTACTAAATTCATACAAATT [XGTACX_site2605] | 9.08 |
| AATAAAATAATAAAAGCACACAAGAATACACCCAAA [CACACA_site7919] | 10.1 |
| TTTAACGAATAAAAATGTACAAATTTATACATTTAT [XGTACX_site2805] | 9.01 |
| ATAGGTAAAAAGTATACACACGTTGACACATTCTTT [CACACA_site4794] | 9.47 |
| AAATAATACAAGGGCTGTACATAAAAAGGAGTATAT [XGTACX_site839] | 9.81 |
| ATTTTAAAAAGGATAGTGCAAATGTTAAAATAGGAC | 9.64 |
| AGAAAAAAAAAAAGTACACACATATAACATATAGAT [CACACA_site7410] | 9.97 |
| ATTTATTTTCTGTGTACACATATGTTGGGTATTTTA [CACACA_site5902] | 9.63 |
| GTATATATCCCAAAATGTACATAATTTATTATTTAT [XGTACX_site2842] | 9.28 |
| ATCTCTTATATATTCACACACATATATATAATTATA [CACACA_site1502] | 9.78 |
| AAATATAATAACGAACGTACTTATTATAATTTGTAA [XGTACX_site2342] | 8.98 |
| TATTTATATATATGATGTACATAAGGTGTAATGTTA [XGTACX_site5591] | 9.2 |

| Sequence | gcPBM binding intensity (ln) |
| --- | --- |
| TATTTACATACAAAATGTACAAAAATATATTTTTTT [XGTACX_site888] | 9.08 |
| TACATGAATATTTATACATGCACACTAAAATAAAGA [TGCATGCA_site611] | 9.35 |
| ATATATATTTAATGTTGTACATAAAAAATATATAAA [XGTACX_site7774] | 9.01 |
| AAACATATATACATATGTACATATATACATATATGT [XGTACX_site5779] | 9.29 |
| TATAAACCTTTTTGCACGCACACAAAAAAAAAATAA [CACACA_site168] | 9.26 |
| TTCGGAAAAATTAAAGCACACAAAAAAAAATAAAAA [CACACA_site8296] | 9.45 |
| GATTAACAACATATTAGTACATATATTATATATATA [XGTACX_site7646] | 9.31 |
| GACTATAATGTTTTGGTGCGTCATGTTATGGTCATC | 9.3 |
| CATATTTTATTATATACATGCAATTTTAATATATAT [TGCATGCA_site544] | 9.17 |
| TATAATTTAACGACATGTACATATAAAAAAATATTT [XGTACX_site2395] | 9.22 |
| ATACACATTCTTCCGACATAATAAGAAAAAGAAAAA [CACACA_negctrl_site9] | 9.13 |
| AAAATGTATTCTCTCATGCACACTTTCTTTAAGGGA [CACACA_site2196] | 9.08 |
| TGTAGATTTTGTAACACACACATATAAATACCTATA [CACACA_site7183] | 9.73 |
| TTATTTATATTTTTTTGTACACATATTGTATACATA [XGTACX_site1178] | 9.31 |
| CTTAAATTGAAATGTTGTACAAAGTAAAAACAATGA [XGTACX_site2123] | 9.36 |
| TATTAACACAATAGCGCACACTTTTAATATTTTATA [CACACA_site1617] | 9.38 |
| AAAGAATACAAAATTGCACACATATTGTGAAAATGT [CACACA_site9327] | 9.67 |
| ATATAATGTTGTAATAGTACTTTTTTCATATAAATA [XGTACX_site2666] | 9.21 |
| TTTTATTATTAATTTCTTTTTTCTCATCACTTTCAA [XGTACX_negctrl_site117] | 8.96 |
| TTTACAAAAAATTATACACACACGTACATATAAATA [CACACA_site945] | 9.67 |
| ATATATATAAAATATACACACATACTGTTCATTTAA [CACACA_site6149] | 9.5 |
| TAATTTATGAGTAATACACACACTTGTGGATATATT [CACACA_site3790] | 9.5 |
